# In the RNAGym collection of RNA variant scans (doi:10.7554/elife.90254):
# The source gives no read counts; variants with many changes may rest on few reads.
# B1: LINE1-mini (parent)
# chain: GGCAGAGCUCAACACAGCGUGGCAAAGUGGCUGUGGCUAGACUGCC
# Variants of: B1
# Test: self-cleavage, relative activity (ratio to wild type); higher = more cleavage; in vitro, sequencing; the parent is a self-cleaving ribozyme
row,Variant,self-cleavage
1,GGCAGAGCUCAACACAGCGUGGCAAAGUGGCUAUGGCUACACUGUC,0.12
2,GGCAGCGCUCAAUACAGCGUGGCAAAGUGGCUGCGGCUAGACUGCC,0.05
3,GGCAGAGCUCAACACAGCGUGGCAAAGUGGCUGUUGCGCGACAGCC,0.04
4,GGCAGAGCUCAACACAGGGUGCCAAAGUGGUUGUGUCUAGACUGCC,0
5,GGCAGAGUUCAACACACCGUGGCAAAGUAGGUGUGGCUAGGCUGCC,0.04
6,GCCAGAGCUCAACAAAGGGUGGCAAUGUGGCUGUGGCUAGACUGCC,0.12
7,AGCAGAGCUCAACACAGUGUGGAAAAGUGGCUGUGGCUAGACUGCC,0.64
8,GGCAGAGCUAAACACAGCGUUGCAACGUGGCUGUGGUUAGACUGCC,0.01
9,GGCAGAGCUCAAUACUGCGUGGCAAAGUUGCUGGGGCUAGACUGCC,0.02
10,GACAGAGCUCCAGACAGCGUGGCAAAGUGGCUGGGGCUAGACUGCA,0.02
11,GCCAGAGCUCAACACAGCGUGGCAAAUUGGCUGUCGCUAGACUGAC,0.03
12,GGCAGAUCUCUAGACAGCGUGGCAAAGUGGGUGUGGCUAGACUGCC,0.02
13,GGCAUAGCUCAACACAGCGUGGCAAAAUCGCUGUGGCAAGACUGCC,0.01
14,GGCAGAGCUCAACACAGCGUGGCAAAGUGGCUGUGCCUAGCCUCCC,0.08
15,GGCAGAGCUUAACACAGCGUGGAAAAGUGGCGGUGGCUAGACGGCC,0.01
16,GGUAGAGCUCAACACAUCGUGGCGAAGUAGCUGUGGCUAGACUGCC,0.56
17,GGGUGAUCUCAACACAGUGUGGCAAAGUGGCUGUGGCUAGACUGCC,0.06
18,CGCAGAGCUCAAUACAGCGUCCCAAAGUGGCUGUGGCUAGGCUGCC,0.03
19,GGCAGACCUCAACACAGCGUGGUAAAGUGGCUGCGGCUAGACUGCC,0.01
20,GGCAGAGCUCAACACAGCGUGGCAAAAUGGCUCUGGUUAAACUGCC,0.1
21,GGCAGAGCUAAACACAUCGUGGCAAAGUGGCUGUUGCUAGACUCCC,0.01
22,GGCAGAGUUCAACACUGCGUGGCAAAGUGGCAGUGGCUAGACUGCC,0.29
23,GGGAGAGCUCAACACAGCGUGGCAAGGUGGCUGUGGCUAGACUGGC,0.17

row,Variant,self-cleavage
1,GGCAGAGCUCAAUAGAGCGGGGCAAAGUGGCUGUGGCUAGACUGCC,0.01
2,GGCAGGGCCCAACACAGCGUGGCAAAGUGGCAGUGGCUUGACUGCU,0
3,GGCCGAGCUCAGCACAGCGUGGCAAAGGGGCUGUGGCUAGACUGCC,0.14
4,GGCAGAGCUCAACACAGCGUGGACAAGUGGAGGUGGCUAGACUGCC,0.02
5,GGCAGCGCUGAACAGAGAGUGGCAAAGAGGCUGUGGCUAGACUGGC,0.01
6,GGCAGAGCUCAGCACAGCGUGGAAAAGUGGCUGUGGCAAGACUACC,0.01
7,GGCAGAGCUCAACACAGAGUGGGAAAGUGGCUGUGGCUAGACAGCC,0.02
8,AACAGAGCUCAACUAAGCUUGGCAAAGUGGCUGUGGCUAGACUGCC,0.3
9,GACACAGCUCAAUACAGCGUGGCGAAGUGGCUGUGGUUAGACUGCC,0.06
10,GGCAGUACUCAACACAGCGUGGCAAAGUGGCUGUGUCUAGACUGCC,0.07
11,GGUAGAGCUAAACACAGCGUUGCAAAGUGGCUGUGGCAAGACUGCC,0.13
12,GGCAGAGCUCAACACAUCGUGGCAAAGUGUCUGUGGCUAGACUCCC,0.01
13,GGCAGAGCUCAACACAGCGUGGCAUUGUGGCUGCGGCUGGACUGCC,0.06
14,GGCAGAGCUCAACACAGCGUGGCAAGGUGUAUGUGGCGAGACUGCC,0.1
15,GGGAGAGCUCAACACAGUGUGGCAAAGUGGCCGUGGCUCGACUGCC,0.15
16,AGCAGAGCUCUACACAGCAUGGCAAAGUGGCUGUGGCUAGACUGCC,0
17,GGCAGAGUUCAACCCAGGGUGGCAAAGUGGCUCUGGCACGACUGCC,0.09
18,GGCAUAACUCAACACAGCGUGUCAAAGUGGCUGUGGCUAGCCUGCC,0.11
19,GGGAGAGCUCAACACACCGUGGCACAGCGGCUGUGGCUAGACUGCC,0.03
20,GGCAGAGCUCAACACAGCGUGGCAUUGUGGCUGUAGCUAGACAGCC,0.04
21,GGCAGAGCUCAACUCGGCGUGGCAGAGUGGCUGUGCCUAGACUGCC,0.01
22,GGCAUACCUCAACACAGCGUGGCAAAGUGGCUGGGGCUAGACUGCC,0.01
23,GGCAGAGCUCAACACAGCUUUGCAAAGUGGCUGUGGCUAGACUGCA,0.12

row,Variant,self-cleavage
1,GACAGAGCUCAACACAGCGUGGCAAAAUGGCUGUGGCUAGUCUGCC,0.65
2,GGCAGUGCUAAAAACAGCGUGGCAAAGUGGCUGUGGCUAGACUGCC,0.02
3,GGCAGAGCUUAGCACAGCGUGGGAAAGUGGCUUUGGCUAGAGUGCC,0.01
4,GGCAGAGCUCAAUACUGCGCGGCAAUGUGGCUGUGGCUAGCCUGCC,0.11
5,AGCAGAGCUCAACAAAGCGUGACAAAGUGGCUGUGGCUAGACUGCC,0.15
6,GGCAUAGCUCAACACAGCGUGGCAAAGUGCCUGUGGCUAGAUUGCC,0.02
7,GGCACAGCUCAACACAGCCUGGCAAAGUGGCUGUUGCUAGACUGCC,0.02
8,GGCAGAGCUUAACACAUCGUGGCAAAGUGGCUGUGGCUAGAGUGCC,0.02
9,GGCAGAGCUUAACACAGUGUGGCAAUGUGGCUGUGGCUAGACUGCC,0.11
10,GGCAGAGCUGCACACAGCGUGGCAACGUGGCUGUUGUUAUACUGCC,0
11,GGCAGAGCCCAACUCAGCGUGGCAAAGUGGCUGUGGCUCGACUGCC,0.07
12,GGCAGAGCUAAACACGGCGUGUCAAAGUGGCUGUGGUUAGACUGCC,0.02
13,AACAGAGCCCAACACAUCGAGGCAAAGUGGCUGUAGCUAGACUUCC,0.01
14,GGCAGAGCUCAACACAGCGGGGCUACGUGGCUGUAGCUUGACCGAC,0.02
15,GGCAGAGCUCCAAACAGCGUGCCAAAGUGGAUGUCGCUAGACUGCC,0
16,GGAAAAGUUCAACACAGCGUGGCAAAGUGACUGUGGCUAGACUGCC,0.26
17,GGCAUAGCUCGACACUGCGUGGCAAACUGGCUGUGGCUAGACUGCC,0.02
18,GGCAGAGCUCAACACAGAGGGGCAAAGUGGCUAUGGCUAGACUGCC,0.01
19,GGGAGAGCUCAACGCAGCGAGGCAAAGUGGCUGUGGCGAGACUGCC,0.01
20,GGCACAGCUCAACACAGCGUUGCAAUGUGGCUGUGGCCAGACUGCC,0.02
21,GGCACAGCUUAACACAGCGUGGCAAAGUGGCUGUGGCUCGACUGCC,0.03
22,GGCAGAGCUCAACACAGCGAGGCAAAGUGGCUGUGGCUAGGCUGCA,0.04
23,GGCAGAGGUCAACACAGCGUGGCAAAGUGGCAUUGGCUUGACUUCC,0.06

row,Variant,self-cleavage
1,GGCAGAGCUCAACACAGCGUGGCAAAGUGGCUGUGGAUAUGCUGCC,0.42
2,GGCAGAGCGCAGCACAGAGUGGCAAAGUGGCUGUGGCUAGACUGCC,0.01
3,GUCACAGUUCAACACACCGUGGAAAAGUGGGUGUGGCUAGACUGCC,0
4,GUCAGAGAUCAACACAGCGUGGCAAAGUGGCUGAGGCUAGACUGCC,0.11
5,GGCACAGAUCAACACAGCGUGGGCAAGUGGCUGUGGCUAGACUGCC,0.26
6,GGCAGAUCUCAACACAGCGUGUCAAAGUGGCUGUGGCGAGACUGCC,0.01
7,GGCAGAGCUAAACACAGCGUGGCAAAGUGGCUGUGGCUUGUCUGCC,0.04
8,GGCAGAGCGCAACACAGCGCGGAAAAGUGGCUGUGGCUAGACUGCC,0.03
9,UGCAGAGCUCAACACAGCCUGGGAAAGCGUCAGUGGCUAGACUGCC,0.01
10,GGCAGAGCUCCAGACUGCGUAGCAAAGUGGCUGUGGCUAGACGGCC,0
11,GGCAGAGCUCAACACAGAGUGGCAAAGGCGCUGUUGCUAGACUGCC,0.07
12,GGCAGAGCUCGACACAGCGUGGCAAAAUGGCCGUGUCUAGACUUCC,0.01
13,UGCAGAGCUCAACACUGCGUGGCAAAGUGGCUGUUGCUAGACUGCC,0.02
14,GGCAGAGCUCAACACAGCGUGGCAAAGUGGCUGUGAGUAAACUGCG,0.03
15,GGCAGAGCUCCGCACAACGUUGCAAAGUGGCUGUGGCUUGACUGCC,0
16,GGUCGAGCUCAACACAGCCUGGCAAAGUGGCUGUGGCUAGACUGCC,0.08
17,GGCAGAGCUCAACACAGCGUGGCAAAGUUGCUGUGUCUUGACUGCC,0.03
18,GGCAGAUCUCAAAACAGCGUGGCAAUGUGGCUGUAGCUAGACUGUC,0.57
19,GGGAGAGCUCAACACAGCGUGGCAAAUUGGCUGGGGCUAGACUGCC,0.04
20,GGCAUAUCUGAACACAGCGUGGCAAAGUGGCUGUGGCAAGACUCAC,0
21,GGCAGAGAUCAGUACAGCGUGGCUAAGAGGCUGUGGGUACACGGCC,0.1
22,GGCAGACCUCAACACAGCGCAGCAAAGUGGCUGUGGCUAGACUGCC,0.05
23,GGCAGAGCUCAACACAGCGUGGCAAAUUAGCUGUGACUAGACUGCC,0.03

row,Variant,self-cleavage
1,GGCAGUGCUAAACACAGCGUGGCAAAGUGGCUCUGGCUAGAUUGCC,0.01
2,GGAAGAGCUCAACAGAGCGAGGCAACGUUGCUGUGGCUAGACUGCC,0.02
3,GGCAGACCUCAACACAGCGUGGCAAACUGGCUGUGGAUAGACUGCC,0.02
4,GGCAUUGCACAACACAGCGCGGCAAAGUGGCCGUGGCUAGACUGCC,0.08
5,GGCAGAGCUCAACACAUUCUGGCAAAGUGGCCGUGGCUAGACUGCC,0.08
6,GGCAGAGCUCAACAAAGCGUGGUUAAGUGACUGUGGCUAGACUGCC,0.05
7,GGCAGAGCUCAACACAGGGUGGGACAGAGGCUGUGGCUAGUCUGCC,0.02
8,GGCAGUGCUCACUACAGCGUGCCAAAGUGGCUGUGGCUAGACUACC,0.02
9,UGCAGAGCUCAACACAACGUGGCAAAGUGGCUGUGGCUAAACUGCC,0.02
10,GCCAGAGCUAAACACAGCGUGGCAAAGUGGCUGUGGCUAGACUUCC,0.02
11,GGCAGAGCUCAACACCGCGUGGCAAAGUGGCUGUGGCGAUACCGCC,0.04
12,CGGAGAGCUCGACACAGCGUGGCAAAGAGGCUGUGCCAAGAUUGCC,0.01
13,GGCACCGCUCAACACAGCGUGGCAAAGUGACAGUGUUUAGCCUGCC,0.02
14,GGCAAAACUCAACACAGGGUGGGAAAGUGGGUGUGGCUAGACUGCC,0.07
15,GGUAGAGCUCGACACAGCGUGGCUAAGUGGCCGUGGCUAGACAUCC,0.02
16,GGCAGAGCUCAACACAGGGUGACAAAGUGCCUGUGGUUAGACUGCC,0.02
17,GGCCCACCUCAACACAGCGUGGCAAAGUGGCUUCGGUUAGACUGCC,0.17
18,GGCAGAUCUAAACACAGCGUGGCAAAAUGGCUGUGGCUAGACUGCC,0
19,GGCAGAGCUCAGCACAGCGUGUCAAAGUGCCUGUGGCUAGACUGCC,0.03
20,AGCAGAGCUCAACACAGCAUGGCAAAGCGGCCGUGGCUAGAAUGCC,0.04
